Laboratory results as given in PubChem BioAssay AID1346428 (National Center for Advancing Translational Sciences (NCATS), 2018).
Among all 48,000 compounds or so, about 1,200 (2.5%) were called active. Another 2% or so got no clear call; they are omitted.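 The calls were made as follows: active = activation of at least 60% and not above a set upper limit (about 1 call in 100 departs from these limits); inconclusive = activation of 40% to 60%, or above that upper limit; inactive = activation under 40%.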 This is one part of the list.

The compounds below were run against Probable G-protein coupled receptor 32 (Homo sapiens) (UniProt O75388) (assay: qHTS for Agonists of Human Resolvin D1 Receptor DRV1). Conditions: CHO-K1 GPR32 beta-arrestin PathHunter luminescence, 90 min; at 76.9 µM; stronger effect = higher value; zero percent set by DMSO-only wells.
Summary of the method: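 PathHunter enzyme-fragment complementation, CHO-K1 GPR32 stable line; 2,500 cells/well, overnight attach; cpd 90 min 37 °C 5% CO2; detection reagent 1 h RT; chemiluminescence. DMSO = EC0.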

Sequence of UniProt O75388 (O75388 whole entry, looked up, the tested form may be a part): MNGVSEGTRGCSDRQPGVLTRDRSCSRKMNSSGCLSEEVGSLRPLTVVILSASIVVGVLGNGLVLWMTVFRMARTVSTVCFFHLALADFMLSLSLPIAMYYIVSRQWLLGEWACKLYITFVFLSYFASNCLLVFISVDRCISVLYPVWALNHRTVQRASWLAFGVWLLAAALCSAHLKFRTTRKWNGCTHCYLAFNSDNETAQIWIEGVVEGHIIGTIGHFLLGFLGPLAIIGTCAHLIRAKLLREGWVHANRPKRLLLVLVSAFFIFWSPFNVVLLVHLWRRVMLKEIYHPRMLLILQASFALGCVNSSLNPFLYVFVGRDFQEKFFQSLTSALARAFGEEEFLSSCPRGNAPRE

Structure (SMILES)	activation
Cc1cc(=O)[nH]c2nnc(SCC(N)=O)n12	inactive: 2.44%
O=C(COc1ccc2oc3c(c2c1)CCCC3)Nc1cccc(Br)c1	inactive: 6.17%
COc1ccc(C(=O)c2c(N)c(C(=O)Nc3ccccc3Cl)c3ccccn23)cc1	inactive: -0.874%
Cc1nnc(N2C(=O)c3oc4ccccc4c(=O)c3C2c2cccc(OCCC(C)C)c2)s1 (centres undefined)	inactive: 0.609%
CCCCc1ccc(C(=O)c2c(N)c(C(=O)Nc3cccc(OC)c3)c3ccccn23)cc1	inactive: 15.5%
CC1CCN(C(=O)Cn2cc(SCC(=O)NCc3ccc(F)cc3)c3ccccc32)CC1	inactive: -26.9%
COc1cc(C(=O)NCCc2sc(-c3ccc(C)cc3)nc2C)cc(OC)c1OC	inactive: 29.5%
COCCCNC(=O)c1c(NC(=O)Cc2coc3cc(C)ccc23)sc2c1CCCC2	inactive: -23.8%
Cn1c(=O)c2cc(C(=O)NCCCN3CCN(c4ccc(F)cc4)CC3)sc2c2ccccc21	inactive: 4.21%
Cc1ccc(-c2noc(-c3ccc(N4CCOCC4)c([N+](=O)[O-])c3)n2)cc1	inactive: 4.72%
COc1ccc(NC(=O)CSc2nc3ccccc3nc2N2CCOCC2)c(OC)c1	inactive: -31.2%
Cc1ccc(C(=O)c2oc3ccccc3c2NC(=O)COc2ccccc2C)cc1	inactive: 15.6%
Cc1ccccc1CN1C(=O)c2ccccc2S(=O)c2ccc(C(=O)N3CCOCC3)cc21 (centres undefined)	inactive: -4.4%
O=[N+]([O-])c1cc(-c2nc(-c3ccccc3)no2)ccc1NCc1ccco1	inactive: -3.34%
COc1ccc(N2CC(C(=O)NCCS(=O)(=O)N3CCN(c4ccccc4)CC3)CC2=O)cc1 (centres undefined)	inactive: -11.6%
O=C(CCCN1CCN(c2ccccn2)CC1)c1ccc(F)cc1	inactive: 10.9%
COc1ccc(S(=O)(=O)N2CCC(Oc3cccc(C(F)(F)F)c3)CC2)cc1OC	inactive: -2.39%
CC(C)OCCCNC(=O)c1cn(C)c2ccc(S(=O)(=O)N(C)C3CCCCC3)cc2c1=O	inactive: 8.77%
CN(CC(=O)Nc1ccc(OC(F)(F)F)cc1)S(=O)(=O)c1ccc2c(c1)CCC(=O)N2	inactive: 12.1%
Cc1c(C(=O)N2CCCC2)oc2c1-c1nn(CC(=O)NCc3ccc(OC(C)C)cc3)cc1CC2	inactive: -5.83%
CCc1cccc(NC(=O)c2cnc(N3CCOCC3)c3ccccc23)c1	inactive: -13.8%

Structure (SMILES)	activation
Cc1ccc(-n2c(=O)c3c(C)c(C(=O)N(C)C)sc3n(CC(=O)N(C)c3ccccc3)c2=O)cc1C	inactive: -8.54%
Cc1ccc(C)c(NC(=O)CSc2nc3nccnc3c(=O)n2CCc2c[nH]c3ccccc23)c1	inactive: 0.242%
CCOC(=O)c1cc(-c2ccccc2)n(CCCC(=O)Nc2ccc(C)c(Cl)c2)c1C	inactive: -22.9%
Cc1ccc2occ(-c3cc(-c4ccccc4)nc4c3COc3ccccc3-4)c(=O)c2c1	inactive: 19.3%
O=C(Nc1ccc(-c2nc3cc(Cl)ccc3o2)cc1)c1cc(Br)ccc1Cl	inactive: -23.9%
CCc1cccc(C)c1NC(=O)CN1CCN(Cc2ccccc2Cl)S1(=O)=O	inactive: -11.3%
CCc1ccc(NC(=O)Cn2c(=O)c3cccn3c3ccccc32)cc1	inactive: -25.4%
COc1ccc(-c2csc3nc(-c4ccc(Cl)cc4)oc(=O)c23)cc1	inactive: 12.1%
Cc1cccc(NC(=O)CCn2cnnn2)c1	inactive: -4.65%
COc1cc(C(=O)NC2(C(F)(F)F)C(=O)NC(C)=C2C#N)cc(OC)c1OC (centres undefined)	inactive: -2.01%
CCN(CC)S(=O)(=O)c1ccc2c(c1)N(CC(=O)N1CCN(c3cccc(C)c3)C(C)C1)C(=O)CO2 (centres undefined)	inactive: -27%
CCN(C(=O)CSc1nc2ccccc2c2nc(CCn3c(C)nc4ccccc43)nn12)c1cccc(C)c1	inactive: -3.7%
COc1cc(C(=O)Nc2ccc3nc4n(c(=O)c3c2)CCCCC4)cc(OC)c1OC	inactive: 5.9%
Cc1ccc(Nc2c(-c3ccc(N4CCOCC4)cc3)nc3ccc(C)cn23)cc1	inactive: -0.525%
CC(=O)c1ccc(N2CCN(C(=O)Nc3ccc(C)cc3)CC2)cc1	inactive: 1.66%
COc1ccc(NC(=O)CSc2nnc(N)s2)cc1	inactive: 6.37%
Cn1c(=O)oc2cc(S(=O)(=O)NC(CC(=O)O)c3cccc(Br)c3)ccc21 (centres undefined)	inactive: -4.92%
Cc1cc(NC(=O)Nc2ccc3c(ccn3C)c2)sn1	inactive: 3.86%
Cc1cccc(CNC(=O)c2ccc3c(c2)N(C)CCS3)c1	inactive: -18.8%
Cc1cc(C)c(NC(=O)CSc2nc3ccccc3c3nc(-c4ccccc4)nn23)c(C)c1	inactive: -17.5%
CCc1ccc(C(c2ccccc2)c2c(C)[nH]c3ccccc23)s1 (centres undefined)	inactive: 13%

Structure (SMILES)	activation
CCOc1ccc(C2C(=O)N(C3CCCCC3)CC(=O)N2Cc2ccc(F)cc2)cc1OC (centres undefined)	inactive: -14.1%
COc1ccc(NC(=O)Cn2c(=O)n(CCCC(=O)NCc3ccccc3Cl)c(=O)c3ccccc32)c(OC)c1	inactive: -4.27%
CC(C)(C)c1cc(C=O)cc(C(C)(C)C)c1O	inactive: -7.02%
Cc1ccccc1CNC(=O)Cn1nc(C)c2nn(-c3ccc(Cl)cc3)c(C)c2c1=O	inactive: -16.8%
CCOC(=O)c1sc2ccccc2c1S(=O)(=O)Nc1cc(OC)ccc1OC	inactive: -11.4%
COc1ccc(N2CCN(c3ncccc3-c3nc(-c4ccccc4C)no3)CC2)cc1	inactive: -5.45%
Cc1ccc(C)c(N2CCN(S(=O)(=O)c3ccc4[nH]c5c(c4c3)CCCC5)CC2)c1	inactive: 6%
COc1ccc(CNCc2c(C(=O)O)c(C)n(Cc3ccccc3C)c2C)cc1OC	inactive: -5.37%
COc1ccc(CNS(=O)(=O)c2ccc(C(=O)N(C)C)s2)cc1	inactive: -13%
N#Cc1nc(-c2ccc(COc3ccc(Cl)cc3)o2)oc1N1CCCCC1	inactive: -7.47%
CCOC(=O)c1scc(-c2ccccc2)c1S(=O)(=O)Nc1ccccc1OC	inactive: -52.6%
COc1ccccc1N1CCN(c2nc3c(S(=O)(=O)c4ccccc4)nnn3c3ccc(Cl)cc23)CC1	inactive: -5.09%
CCc1cccc(C)c1Nc1c(-c2ccc(F)cc2)nc2sccn12	inactive: -10.1%
COc1ccc(Cn2c(SCc3ccc(C(=O)NC4CCCCC4)cc3)nc3ccncc32)cc1	inactive: -1.28%
O=C1c2[nH]nc(-c3ccccc3O)c2C(c2cccc(OCc3ccccc3)c2)N1CCCO (centres undefined)	inactive: 2.77%
Fc1ccc(N2CCN(Cc3nnc(-c4ccccc4Cl)o3)CC2)cc1	inactive: -0.339%
CCOc1ccc(NC(=O)CSc2ncc(S(=O)(=O)c3ccc(F)c(C)c3)c(=O)[nH]2)cc1	inactive: -6.1%
Cc1ccc2c(=O)c(C(=O)c3ccccc3)cn(CC(=O)NCc3ccccc3)c2n1	inactive: 3.3%
Cc1ccc(CNc2nc(-c3ccco3)nn2C(=O)c2ccccc2[N+](=O)[O-])cc1	inactive: -30.4%
Cn1c(=O)c2nc(SCC(=O)Nc3ccc(OC(F)(F)F)cc3)n(C)c2n(C)c1=O	inactive: 0.38%
COc1ccc(CC(=O)Nc2c(C(=O)N3CCN(c4ccccc4)CC3)oc3ccccc23)cc1OC	inactive: -13.8%

Structure (SMILES)	activation
NC(=O)CC[C@H](N)C(=O)O	inactive: 4.96%
CCOC(=O)c1c(C)[nH]c(C)c1S(=O)(=O)N(C)CC(=O)Nc1ccc(OC)cc1	inactive: -2.99%
Cc1cccc(Cn2cc(S(=O)(=O)c3cccc(Cl)c3)c(=O)c3cc(F)c(N4CCOCC4)cc32)c1	inactive: -20.6%
O=C1c2ccccc2C(=O)C1c1ccc(Br)cc1	inactive: 21.2%
O=C1OCC2=C1C(c1cccc(Cl)c1)CC(=O)N2c1ccc(C(F)(F)F)cc1 (centres undefined)	inactive: 8.76%
CCOc1ccccc1NC(=O)C1CCN(S(=O)(=O)c2c(C)noc2/C=C/c2ccco2)CC1	inactive: -24.7%
COc1cc(C(CC(=O)Nc2ccc(C)c(F)c2)N2Cc3ccccc3C2=O)cc(OC)c1OC (centres undefined)	inactive: -5.99%
COc1ccc(-c2nc(CNC(=O)NC3CCCCC3)c(C)o2)cc1	inactive: 10.3%
CCN(CC)c1ncnc2c1cnn2-c1cc(Cl)ccc1C	active: 71.6%
O=C(CCn1c(=O)c2ccccc2n(CC(=O)Nc2cccc(F)c2)c1=O)NCCc1ccccc1	inactive: 26.6%
COc1ccc(OC)c(CNC(=O)c2ccc(N3Cc4ccccc4Oc4ncccc43)s2)c1	inactive: -18%
COc1cc(NC(=O)Cn2nc(C(F)(F)F)c3c2CCC3)cc(OC)c1OC	inactive: 37.7%
CC1CCCN(CCCNC(=O)c2cc(Sc3ccc(F)cc3)nc3ccccc23)C1 (centres undefined)	inactive: -21.9%
Cc1noc(-c2ccc(-c3noc(-c4ccc(F)cc4)n3)cc2)n1	inactive: -2.28%
Cc1ccc(NC(=O)Cn2nc(-c3ccccc3)nc(Cc3ccc(Cl)cc3)c2=O)cc1	inactive: -12.9%
COc1cc(C2Nc3ccccc3-c3cc(C)nn32)ccc1O (centres undefined)	inactive: -19.9%
CCOC(=O)c1cccc(NC(=O)CCSCCc2ccccn2)c1	inactive: -6.74%
COc1cccc(CNC(=O)c2cc3c(-c4ccccc4F)nn(C)c3s2)c1	inactive: 8.96%
O=C(CCCn1c2ccccc2c(=O)c2ccccc21)Nc1cccc(Cl)c1	inactive: 16.4%
O=S(=O)(c1ccc(Br)s1)N1CCN(c2cccc(C(F)(F)F)c2)CC1	inactive: -28.4%
O=C(NCCc1ccc(Cl)cc1)c1c2c(nc3ccccc13)C(=O)N(C1CCCCC1)C2	inactive: -5.91%
